Article PMC12136788
The list shows a part of the results.

T1: UNK ZnF1-3 (human, UniProt Q9C0B0 31-174)
T1 sequence: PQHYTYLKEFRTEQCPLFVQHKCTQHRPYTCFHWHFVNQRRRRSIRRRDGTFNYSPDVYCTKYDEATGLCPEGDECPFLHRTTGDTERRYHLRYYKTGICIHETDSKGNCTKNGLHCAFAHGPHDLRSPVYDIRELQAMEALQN

B1: chr9:49313425:49313426:-_ENSMUSG00000039542_ENSMUST00000166811|mus_hu|FALSE|FALSE (ssRNA)
RNA: GGGAGUUCUACAGUCCGACGAUCUUUUUAAAGGCAAAAGACACUAGAGAAAUGAGAUGUGUGUGUGUGCAUGUGUGUUUGUGUGUGUGCGUGCGUGUGUGUGUCUGUGGUGUUGGAAAUGCUCUGGUGAAGCUGCUGUGUCACCAACAGAGGAUUGAGCAUCA
B2: chr2:179515052:179515053:+_ENSMUSG00000000305_ENSMUST00000000314|mus_hu|mus_mus_mus_hu_False|38_108 (ssRNA)
RNA: GGGAGUUCUACAGUCCGACGAUCGCUUUCCCGCGCAGUCACCGUGAACGCCACCUGCUCGGAGGGGACCUGCAGCUCCCGGGUGGCGAAGACUGUCCCAUCCGCCCCAACUUUGAAGUCCAUGCUGUUGGUCUCAUAUUGUGUCAACAGAGGAUUGAGCAUCA
B3: 35840488_35842112_590_3pUTR_ENSG00000096063_ENST00000361690|human|control|control (ssRNA)
RNA: GGGAGUUCUACAGUCCGACGAUCUCAAGACCCUGUAACACUUGCUGAAUAAUUUUUUUGACACAAGGCAGUGGAAGCCCCUGAUAAUUGGAUUUGAUGAUCCACUUGAGCAGAUGAUGCCCCAAAACUUCAAAUACCAUGCAGCAACAGAGGAUUGAGCAUCA
B4: 135896128_135898039_2713_3pUTR_ENSMUSG00000039959_ENSMUST00000060311|mouse|control|control (ssRNA)
RNA: GGGAGUUCUACAGUCCGACGAUCCAAUCUCGCGUGAACACACCAUCAGCUCCUCGAACUUCCCUUUGCCUUGGACCACAAGAUCAGCAGCAUCCACCAUGAUGGUAGCUCCCCAACCAACAGCUUUGGAGGCGGAUAUCAGCCCAACAGAGGAUUGAGCAUCA
B5: chr1:78444685:78444686:-_ENSG00000162613_ENST00000370768|hu_mus|motif|central (ssRNA)
RNA: GGGAGUUCUACAGUCCGACGAUCGCCAGCCGAGCCAGACGACGGCGGAGGCACUGUGGAGUAGUCGGCCAUACCCACGCGGCAGCACACGCUGCCGUUUCCUCGCGGAGGGAGGCGCCGCUCUCGGUUAACUGCUAAGAAAGGCAACAGAGGAUUGAGCAUCA
B6: chr7:135832511:135832512:+_ENSMUSG00000042105_ENSMUST00000118605|mus_mus|FALSE|FALSE (ssRNA)
RNA: GGGAGUUCUACAGUCCGACGAUCAUCCUGCCUAUUCUAGAGUUAGUAUUUACAUCAGUCAAAAACAUUAUGUCCUUAUCUAAAAGCAUUUGGCACAAAACAAGCGGUCGAGUGUUGUCGGCCUUUUUCCCCCUCCCACCCCAUCAACAGAGGAUUGAGCAUCA
B7: chrX:69798090:69798091:-_ENSMUSG00000031343_ENSMUST00000055966|mus_mus|mus_mus_mus_hu_False|48_58 (ssRNA)
RNA: GGGAGUUCUACAGUCCGACGAUCAAGUCCCCGGGUUCUUGUCGUCUUGAUUCCCCUUGACCAGUGGUUCCAGGGAGAAUACUAAUCAGGAGAAGAAUCCCAAGGCUGGUCAUGUAACAGUGACUUGUUUGUGUGAUUAUCAUCCAACAGAGGAUUGAGCAUCA
B8: chr18:52893488:52893489:-_ENSG00000196628_ENST00000354452|hu_hu|hu_hu_hu_mus_True|38_48 (ssRNA)
RNA: GGGAGUUCUACAGUCCGACGAUCUAUUUAGACCAUUUCCGCGGAGUUAUGGCAUUUACUCAGUGCUGAUAGGUGGAAAAACUACUUGAACAGGGAUUUUUUUUUUUCUUAAUACAUGCCAAGAUUGUGUGGCUGUCAAAACAGCAACAGAGGAUUGAGCAUCA
B9: 91408844_91410396_1912_CDS_ENSMUSG00000040549_ENSMUST00000099716|mouse|control|control (ssRNA)
RNA: GGGAGUUCUACAGUCCGACGAUCUGCUAGCAUCUUCACCAAUGCCUGGCACGGCAUCUCAGUUCGCUCCAUUAGUUCAACAGCCUUUUGGAAUUCUUCCAUACAGGCCAGCCUUUCCUUCCAGUUGCUGCUGUCUAGAAGCUGCAACAGAGGAUUGAGCAUCA
B10: chr12:48362563:48362564:+_ENSG00000134291_ENST00000256686|hu_hu|hu_hu_hu_mus_False|78_88 (ssRNA)
RNA: GGGAGUUCUACAGUCCGACGAUCUCCGUCAAGCCCUUCGAUAGACCCAUAGACUCUUGGUAAAAACCACUUUGUAUGGGGAAGGAAAAGAAACGCCAAAAACUUUCCAAAAAGCGGGGGUGGGGUGAGGCGGGAGGGGGAGGUCAACAGAGGAUUGAGCAUCA
B11: chr3:49395588:49395589:-_ENSG00000233276_ENST00000419783|hu_mus|FALSE|FALSE (ssRNA)
RNA: GGGAGUUCUACAGUCCGACGAUCGUUCAUCUCGGUGUAGUCCCGGAUCGUGGUGCCUCAGAGAGACGCGACAUUCUCAAUGAGCAGCACCUUGCCCCGCAGGGAGCCCAGGCUCACAGGCUCCCCGCCCGUCAGCGGGCGCGCCAACAGAGGAUUGAGCAUCA
B12: 141595562_141595682_167_5pUTR_ENSG00000069849_ENST00000286371|human|control|control (ssRNA)
RNA: GGGAGUUCUACAGUCCGACGAUCCAGGCUCUGGUUGAGGGACUUCUUCUCGUUCUUCGUCAUGGUGUGCGCGCGGACGGCGAGAGGAGCUGCGGCCGCGGGGAUGGAGGCGGCGAGGGCUGCGGAGGCGCGUCCCGGCUCCGGCAACAGAGGAUUGAGCAUCA
B13: chr1:163112212:163112213:-_ENSG00000143248_ENST00000313961|hu_hu|hu_hu_hu_mus_False|38_68 (ssRNA)
RNA: GGGAGUUCUACAGUCCGACGAUCUUUUAUUAUCAGUAAGAGUGAGUUACAUACUAGGCAAAGUAUUGAAUACAAAAAUCAGGAAACAAACACUAUUUUUCUUGAAUUUAAAACUUUAUGAGCGAAGUGCUGGCACAGGACUUACAACAGAGGAUUGAGCAUCA
B14: chr19:58207738:58207739:+_ENSMUSG00000054843_ENSMUST00000077282|mus_hu|motif|central (ssRNA)
RNA: GGGAGUUCUACAGUCCGACGAUCCCCAGAAAGGUAUAGCAUGACUUUAACUAAACAUCACAUUGUGUCUCAUAAUUCUCGGCAAUUUGAAUUUUCAAGUUUUAAGAACCCAGUGGGAUUUGAGGUGAAUAAAACUUGAUAAUUCAACAGAGGAUUGAGCAUCA
B15: chr14:66974463:66974464:+_ENSMUSG00000022044_ENSMUST00000074523|mus_hu|mus_mus_mus_hu_False|1_58 (ssRNA)
RNA: GGGAGUUCUACAGUCCGACGAUCUUGUAGGACGACUUAUUCAGGGGAUCGGCCAGGAAGCAGGAGCAGAACAAGGACACUAGUGGGAGCUCCUUCAUCUUCUCUUUGUAGGCAGCAAGGGUCAUGUUUCUGGGAUCCUGGUGGCAACAGAGGAUUGAGCAUCA
B16: chr2:129025431:129025432:+_ENSMUSG00000027397_ENSMUST00000028880|mus_hu|motif|central (ssRNA)
RNA: GGGAGUUCUACAGUCCGACGAUCGUACUGGUAAUCAGCGUUGCCAUUCUCUGGAGUAGUGGUUGUUUAGUAAGAGAACGGCUGAGCGCCUUUCAAGAUGUGUAAACAGAAUAUGAGGUAUCAAAAAUGCUAUAAUAAAUAAUACAACAGAGGAUUGAGCAUCA
B17: 220363460_220363810_1716_CDS_ENSG00000118873_ENST00000358951|human|control|control (ssRNA)
RNA: GGGAGUUCUACAGUCCGACGAUCAUCCUUGGCUCGUUCACUCUUCUUAUCACUCAGUGCUAAAUGGAAGGGAACGUUCACUGUUUUCACACUUCCAGACACUGGAUCAACCAGACAGAUCUGAUAAGUCUGUGGCUGCCAACUCAACAGAGGAUUGAGCAUCA
B18: chr5:37680062:37680063:+_ENSMUSG00000029121_ENSMUST00000031004|mus_hu|mus_mus_mus_hu_False|18_88 (ssRNA)
RNA: GGGAGUUCUACAGUCCGACGAUCUUUGGGUGUAGCUGGUACCUCGUACACAGGCCCGUCAUACAUGCCCCUGGAAACCCCUUGCAAUCCAAAAACCUUAUUCCUGAUUUUGACGCGCUGGUAGAGAUGCUCCGGGAACGCCUUCAACAGAGGAUUGAGCAUCA
B19: chr14:102368134:102368135:+_ENSG00000078304_ENST00000445439|hu_hu|hu_hu_hu_mus_True|48_88 (ssRNA)
RNA: GGGAGUUCUACAGUCCGACGAUCAAGAGGCUCCAUGAUCUUCACAAAUUCUGAUGGUUCAAUUACAUCUAAAAUUUCUUCUAAUUCGUUUAAGAACAUUACUUCUUUUGGACUGUGAGUCUUUGGCCAGUAUUUGAGAAGUGCCAACAGAGGAUUGAGCAUCA
B20: 117559201_117559852_142_3pUTR_ENSMUSG00000033379_ENSMUST00000036380|mouse|control|control (ssRNA)
RNA: GGGAGUUCUACAGUCCGACGAUCCAUCAAAGCGAAAGCCCAGGUCAAAGAUGGUGUAGCAGAUUCCCACAACGACCAUGCAGGCCCAGAAGGCCACAAAGAUCCCGAGGUAGAGCAACUCCAGCCCCGUCAUGGCAGCGGCGACAACAGAGGAUUGAGCAUCA
B21: chr11:23185130:23185131:+_ENSMUSG00000020290_ENSMUST00000020538|mus_hu|FALSE|FALSE (ssRNA)
RNA: GGGAGUUCUACAGUCCGACGAUCAAAUGGCAUCACUUCUCCAACCUGAACCUGAACGAAAUGCCUGCGGCAUUUUUGGGCUAUUUUAAUGAAAGUAUCACAAGCCAUAUCCUGGACUCCAUCAUGGGUCUCAUGCAUGAAUUCCAACAGAGGAUUGAGCAUCA
B22: 70806291_70806411_3695_CDS_ENSG00000145734_ENST00000358731|human|control|control (ssRNA)
RNA: GGGAGUUCUACAGUCCGACGAUCCUUGACCUCCUCUGGGCCAUUUUCCUCUGGGGAUAUUUCUCUUCUUCCAGUUUCUUCCAGAUCUUUGUCUAUUUCCUCAGUGGCAUCAAUCACCUCUGGUGUCUUCUCCCUUGGGGAAAUCAACAGAGGAUUGAGCAUCA

The binders below were run against T1, UNK ZnF1-3 (assay: nsRBNS (natural sequence RNA bind-n-seq); RBNS binding buffer (assumed for nsRBNS): 25 mM Tris pH 7.5, 150 mM KCl, 3 mM MgCl2, 0.01% Triton X-100, 500 ug/ml BSA, 20 U/ml SUPERase-In, 4 C; UNK is unkempt and MSI1 is Musashi-1; names of the RNAs are library labels; protein concentration not given here; high values mean tight binding).
Binder B1 has a binding signal of 0.837 enrichment R.
Binder B2 has a binding signal of 0.73 enrichment R.
B3 gave a binding signal of 1.43 enrichment R.
Work on B4 yielded a binding signal of 1.3 enrichment R.
B5 showed a binding signal of 0.963 enrichment R.
B6 was tested, and the binding signal was 1.51 enrichment R.
For B7, the binding signal was 0.609 enrichment R.
Work on B8 yielded a binding signal of 0.972 enrichment R.
Work on B9 yielded a binding signal of 0.572 enrichment R.
With B10 the binding signal was 1.61 enrichment R.
Binder B11 has a binding signal of 0.544 enrichment R.
B12 was tested, and the binding signal was 0.969 enrichment R.
Work on B13 yielded a binding signal of 1.17 enrichment R.
For B14, the binding signal was 0.67 enrichment R.
B15 gave a binding signal of 1.92 enrichment R.
Binder B16 has a binding signal of 1.44 enrichment R.
B17 showed a binding signal of 0.766 enrichment R.
Work on B18 yielded a binding signal of 0.892 enrichment R.
B19 gave a binding signal of 0.802 enrichment R.
B20 gave a binding signal of 1.5 enrichment R.
For B21, the binding signal was 0.946 enrichment R.
Binder B22 has a binding signal of 0.272 enrichment R.
